Some of the results follow.
Legend:
Test in all cases: glycan array binding signal (z-score within array); higher = stronger binding
Settings in all cases: glycan notation: IUPAC condensed, linker removed
[1] = target: Gal(b1-4)GlcNAc(b1-2)[Gal(b1-4)GlcNAc(b1-4)]Man(a1-3)[GlcNAc(b1-4)][Gal(b1-4)GlcNAc(b1-2)Man(a1-6)]Man(b1-4)GlcNAc(b1-4)GlcNAc
Method in brief: (§1)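 Columns mapping to the same glycan were averaged after glycan names were converted to IUPAC-condensed notation. The data come from 3228 arrays in the Consortium for Functional Glycomics database, limited to those with an available protein sequence. Binding is reported as a within-array Z-score averaged across arrays of one protein sequence and across linkers.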

[2] = target: Gal(b1-4)GlcNAc(b1-2)[Gal(b1-4)GlcNAc(b1-4)]Man(a1-3)[GlcNAc(b1-4)][Gal(b1-4)GlcNAc(b1-2)[Gal(b1-4)GlcNAc(b1-6)]Man(a1-6)]Man(b1-4)GlcNAc(b1-4)GlcNAc
Method in brief: as §1

[3] = target: Gal(b1-4)GlcNAc(b1-2)[Gal(b1-4)GlcNAc(b1-4)]Man(a1-3)[GlcNAc(b1-4)][Gal(b1-4)GlcNAc(b1-2)[Gal(b1-4)GlcNAc(b1-6)]Man(a1-6)]Man(b1-4)GlcNAc(b1-4)[Fuc(a1-6)]GlcNAc
Method in brief: as §1

[4] = target: Gal(b1-4)GlcNAc(b1-2)[Gal(b1-4)GlcNAc(b1-6)]Man(a1-6)[Gal(b1-4)GlcNAc(b1-2)Man(a1-3)]Man(b1-4)GlcNAc(b1-4)GlcNAc
Method in brief: as §1

[5] = target: Gal(b1-4)GlcNAc(b1-2)[Gal(b1-4)GlcNAc(b1-6)]Man(a1-6)[Gal(b1-4)GlcNAc(b1-2)Man(a1-3)]Man(b1-4)GlcNAc(b1-4)[Fuc(a1-6)]GlcNAc
Method in brief: as §1

[6] = target: Gal(b1-4)GlcNAc(b1-2)[Gal(b1-4)GlcNAc(b1-6)]Man(a1-6)[GlcNAc(b1-4)][Gal(b1-4)GlcNAc(b1-2)Man(a1-3)]Man(b1-4)GlcNAc(b1-4)GlcNAc
Method in brief: as §1

[7] = target: Gal(b1-4)GlcNAc(b1-3)Gal(b1-3)GlcNAc
Method in brief: as §1

[8] = target: Gal(b1-4)GlcNAc(b1-3)Gal(b1-4)Glc
Method in brief: as §1

[9] = target: Gal(b1-4)GlcNAc(b1-3)Gal(b1-4)GlcNAc
Method in brief: as §1

[10] = target: Gal(b1-4)GlcNAc(b1-3)Gal(b1-4)GlcNAc(b1-3)Gal(b1-4)GlcNAc
Method in brief: as §1

[11] = target: Gal(b1-4)GlcNAc(b1-3)Gal(b1-4)[Fuc(a1-3)GlcNAc(b1-6)]Gal(b1-4)Glc
Method in brief: as §1

[12] = target: Gal(b1-4)GlcNAc(b1-3)Gal(b1-4)[Fuc(a1-3)]GlcNAc(b1-3)Gal(b1-4)[Fuc(a1-3)]GlcNAc
Method in brief: as §1

[13] = target: Gal(b1-4)GlcNAc(b1-3)GalNAc
Method in brief: as §1

[14] = target: Gal(b1-4)GlcNAc(b1-3)[Gal(b1-4)GlcNAc(b1-6)]Gal(b1-4)GlcNAc
Method in brief: as §1

[15] = target: Gal(b1-4)GlcNAc(b1-3)[Gal(b1-4)GlcNAc(b1-6)]GalNAc
Method in brief: as §1

[16] = target: Gal(b1-4)GlcNAc(b1-3)[GlcNAc(b1-6)]Gal(b1-4)GlcNAc
Method in brief: as §1

[17] = target: Gal(b1-4)GlcNAc(b1-6)Gal(b1-4)GlcNAc
Method in brief: as §1

[18] = target: Gal(b1-4)GlcNAc(b1-6)GalNAc
Method in brief: as §1

[19] = target: Gal(b1-4)GlcNAc(b1-6)[Gal(b1-3)]GalNAc
Method in brief: as §1

Gal(b1-4)GlcNAc6P = target: Gal(b1-4)GlcNAc6P
Method in brief: as §1

Gal(b1-6)Gal = target: Gal(b1-6)Gal
Method in brief: as §1

Gal3S(b1-3)GalNAc = target: Gal3S(b1-3)GalNAc
Method in brief: as §1

Gal3S(b1-3)GlcNAc = target: Gal3S(b1-3)GlcNAc
Method in brief: as §1

[20] = target: Gal3S(b1-3)[Fuc(a1-4)]GlcNAc
Method in brief: as §1

Gal3S(b1-4)Glc = target: Gal3S(b1-4)Glc
Method in brief: as §1

Gal3S(b1-4)Glc6S = target: Gal3S(b1-4)Glc6S
Method in brief: as §1

Gal3S(b1-4)GlcNAc = target: Gal3S(b1-4)GlcNAc
Method in brief: as §1

Gal3S(b1-4)GlcNAc6S = target: Gal3S(b1-4)GlcNAc6S
Method in brief: as §1

[21] = target: Gal3S(b1-4)[Fuc(a1-3)]Glc
Method in brief: as §1

[22] = target: Gal3S(b1-4)[Fuc(a1-3)]Glc6S
Method in brief: as §1

Gal3S4S(b1-4)GlcNAc = target: Gal3S4S(b1-4)GlcNAc
Method in brief: as §1

Gal3S6S(b1-4)GlcNAc = target: Gal3S6S(b1-4)GlcNAc
Method in brief: as §1

Gal3S6S(b1-4)GlcNAc6S = target: Gal3S6S(b1-4)GlcNAc6S
Method in brief: as §1

Gal4S(b1-4)GlcNAc = target: Gal4S(b1-4)GlcNAc
Method in brief: as §1

Gal4S6S(b1-4)GlcNAc = target: Gal4S6S(b1-4)GlcNAc
Method in brief: as §1

Gal6P(b1-4)GlcNAc = target: Gal6P(b1-4)GlcNAc
Method in brief: as §1

Gal6S(b1-3)GlcNAc = target: Gal6S(b1-3)GlcNAc
Method in brief: as §1

Gal6S(b1-3)GlcNAc6S = target: Gal6S(b1-3)GlcNAc6S
Method in brief: as §1

Gal6S(b1-4)Glc = target: Gal6S(b1-4)Glc
Method in brief: as §1

Gal6S(b1-4)Glc6S = target: Gal6S(b1-4)Glc6S
Method in brief: as §1

Gal6S(b1-4)GlcNAc = target: Gal6S(b1-4)GlcNAc
Method in brief: as §1

Gal6S(b1-4)GlcNAc6S = target: Gal6S(b1-4)GlcNAc6S
Method in brief: as §1

GalNAc(a1-3)Gal = target: GalNAc(a1-3)Gal
Method in brief: as §1

GalNAc(a1-3)GalNAc = target: GalNAc(a1-3)GalNAc
Method in brief: as §1

[23] = target: GalNAc(a1-3)GalNAc(b1-3)Gal(a1-4)Gal(b1-4)Glc
Method in brief: as §1

[24] = target: GalNAc(a1-3)GalNAc(b1-3)Gal(a1-4)Gal(b1-4)GlcNAc
Method in brief: as §1

GalNAc(b1-3)Gal = target: GalNAc(b1-3)Gal
Method in brief: as §1

[25] = target: GalNAc(b1-3)Gal(a1-4)Gal(b1-4)GlcNAc
Method in brief: as §1

[26] = target: GalNAc(b1-3)Gal(a1-4)Gal(b1-4)GlcNAc(b1-3)Gal(b1-4)Glc
Method in brief: as §1

[27] = target: GalNAc(b1-3)Gal(a1-6)Gal(b1-4)Glc
Method in brief: as §1

GalNAc(b1-3)GalNAc = target: GalNAc(b1-3)GalNAc
Method in brief: as §1

GalNAc(b1-4)Gal(b1-4)Glc = target: GalNAc(b1-4)Gal(b1-4)Glc
Method in brief: as §1

GalNAc(b1-4)GlcNAc = target: GalNAc(b1-4)GlcNAc
Method in brief: as §1

[28] = target: GalNAc(b1-4)GlcNAc(b1-2)Man(a1-3)[GalNAc(b1-4)GlcNAc(b1-2)Man(a1-6)]Man(b1-4)GlcNAc(b1-4)GlcNAc
Method in brief: as §1

GalNAc(b1-4)GlcNAc6S = target: GalNAc(b1-4)GlcNAc6S
Method in brief: as §1

GalNAc(b1-6)GalNAc = target: GalNAc(b1-6)GalNAc
Method in brief: as §1

GalNAc3S(b1-4)GlcNAc = target: GalNAc3S(b1-4)GlcNAc
Method in brief: as §1

GalNAc3S(b1-4)GlcNAc3S = target: GalNAc3S(b1-4)GlcNAc3S
Method in brief: as §1

GalNAc4S6S(b1-4)GlcNAc = target: GalNAc4S6S(b1-4)GlcNAc
Method in brief: as §1

GalNAc6S(b1-4)GlcNAc = target: GalNAc6S(b1-4)GlcNAc
Method in brief: as §1

B1: PRKCE (Homo sapiens), Q02156 (protein)
chain: MVVFNGLLKIKICEAVSLKPTAWSLRHAVGPRPQTFLLDPYIALNVDDSRIGQTATKQKTNSPAWHDEFVTDVCNGRKIELAVFHDAPIGYDDFVANCTIQFEELLQNGSRHFEDWIDLEPEGRVYVIIDLSGSSGEAPKDNEERVFRERMRPRKRQGAVRRRVHQVNGHKFMATYLRQPTYCSHCRDFIWGVIGKQGYQCQVCTCVVHKRCHELIITKCAGLKKQETPDQVGSQRFSVNMPHKFGIHNYKVPTFCDHCGSLLWGLLRQGLQCKVCKMNVHRRCETNVAPNCGVDARGIAKVLADLGVTPDKITNSGQRRKKLIAGAESPQPASGSSPSEEDRSKSAPTSPCDQEIKELENNIRKALSFDNRGEEHRAASSPDGQLMSPGENGEVRQGQAKRLGLDEFNFIKVLGKGSFGKVMLAELKGKDEVYAVKVLKKDVILQDDDVDCTMTEKRILALARKHPYLTQLYCCFQTKDRLFFVMEYVNGGDLMFQIQRSRKFDEPRSRFYAAEVTSALMFLHQHGVIYRDLKLDNILLDAEGHCKLADFGMCKEGILNGVTTTTFCGTPDYIAPEILQELEYGPSVDWWALGVLMYEMMAGQPPFEADNEDDLFESILHDDVLYPVWLSKEAVSILKAFMTKNPHKRLGCVASQNGEDAIKQHPFFKEIDWVLLEQKKIKPPFKPRIKTKRDVNNFDQDFTREEPVLTLVDEAIVKQINQEEFKGFSYFGEDLMP
[1]
  glycan array binding signal (z-score): -0.409
[2]
  glycan array binding signal (z-score): -0.334
[3]
  glycan array binding signal (z-score): -0.406
[4]
  glycan array binding signal (z-score): -0.37
[5]
  glycan array binding signal (z-score): -0.315
[6]
  glycan array binding signal (z-score): -0.353
[7]
  glycan array binding signal (z-score): -0.415
[8]
  glycan array binding signal (z-score): -0.429
[9]
  glycan array binding signal (z-score): -0.365
[10]
  glycan array binding signal (z-score): 0.155
[11]
  glycan array binding signal (z-score): -0.176
[12]
  glycan array binding signal (z-score): -0.387
[13]
  glycan array binding signal (z-score): -0.3
[14]
  glycan array binding signal (z-score): -0.313
[15]
  glycan array binding signal (z-score): -0.294
[16]
  glycan array binding signal (z-score): -0.284
[17]
  glycan array binding signal (z-score): -0.397
[18]
  glycan array binding signal (z-score): -0.328
[19]
  glycan array binding signal (z-score): -0.324
Gal(b1-4)GlcNAc6P
  glycan array binding signal (z-score): -0.178
Gal(b1-6)Gal
  glycan array binding signal (z-score): -0.314
Gal3S(b1-3)GalNAc
  glycan array binding signal (z-score): -0.399
Gal3S(b1-3)GlcNAc
  glycan array binding signal (z-score): -0.309
[20]
  glycan array binding signal (z-score): -0.119
Gal3S(b1-4)Glc
  glycan array binding signal (z-score): -0.257
Gal3S(b1-4)Glc6S
  glycan array binding signal (z-score): 0.728
Gal3S(b1-4)GlcNAc
  glycan array binding signal (z-score): -0.163
Gal3S(b1-4)GlcNAc6S
  glycan array binding signal (z-score): 6.34
[21]
  glycan array binding signal (z-score): -0.032
[22]
  glycan array binding signal (z-score): -0.227
Gal3S4S(b1-4)GlcNAc
  glycan array binding signal (z-score): 8.77
Gal3S6S(b1-4)GlcNAc
  glycan array binding signal (z-score): -0.175
Gal3S6S(b1-4)GlcNAc6S
  glycan array binding signal (z-score): -0.384
Gal4S(b1-4)GlcNAc
  glycan array binding signal (z-score): -0.383
Gal4S6S(b1-4)GlcNAc
  glycan array binding signal (z-score): -0.31
Gal6P(b1-4)GlcNAc
  glycan array binding signal (z-score): -0.166
Gal6S(b1-3)GlcNAc
  glycan array binding signal (z-score): -0.341
Gal6S(b1-3)GlcNAc6S
  glycan array binding signal (z-score): 2.33
Gal6S(b1-4)Glc
  glycan array binding signal (z-score): -0.275
Gal6S(b1-4)Glc6S
  glycan array binding signal (z-score): -0.115
Gal6S(b1-4)GlcNAc
  glycan array binding signal (z-score): -0.405
Gal6S(b1-4)GlcNAc6S
  glycan array binding signal (z-score): 3.2
GalNAc(a1-3)Gal
  glycan array binding signal (z-score): -0.408
GalNAc(a1-3)GalNAc
  glycan array binding signal (z-score): -0.416
[23]
  glycan array binding signal (z-score): -0.227
[24]
  glycan array binding signal (z-score): -0.409
GalNAc(b1-3)Gal
  glycan array binding signal (z-score): -0.412
[25]
  glycan array binding signal (z-score): -0.251
[26]
  glycan array binding signal (z-score): -0.217
[27]
  glycan array binding signal (z-score): -0.278
GalNAc(b1-3)GalNAc
  glycan array binding signal (z-score): -0.41
GalNAc(b1-4)Gal(b1-4)Glc
  glycan array binding signal (z-score): -0.016
GalNAc(b1-4)GlcNAc
  glycan array binding signal (z-score): -0.33
[28]
  glycan array binding signal (z-score): -0.427
GalNAc(b1-4)GlcNAc6S
  glycan array binding signal (z-score): -0.272
GalNAc(b1-6)GalNAc
  glycan array binding signal (z-score): -0.41
GalNAc3S(b1-4)GlcNAc
  glycan array binding signal (z-score): -0.338
GalNAc3S(b1-4)GlcNAc3S
  glycan array binding signal (z-score): 0.501
GalNAc4S6S(b1-4)GlcNAc
  glycan array binding signal (z-score): -0.211
GalNAc6S(b1-4)GlcNAc
  glycan array binding signal (z-score): -0.375

Reference: the supplement of paper PMC8728848
